The source of these data is the supplement of paper PMC11417369.

± gives the standard deviation of the averaged measurements. This is one part of the list.

The test deals with PfAP2-G AP2 domain (GST-tagged). Put plainly: gcPBM binding intensity (ln(normalized median fluorescence intensity)); higher = stronger DNA binding. In short, it runs like this: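 In this array assay, P. falciparum DNA-binding domains with a GST tag, expressed in E. coli, were applied for 1 h to primer-extended double-stranded 36-bp intergenic genomic probes and negative controls on an Agilent 4 × 180k array. Bound protein was visualised with Alexa488 anti-GST antibody at 488 nm. Binding intensity is the highest Masliner-normalised natural-log median intensity across replicate spots of either probe orientation.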
As for TTTTCTTTTTTTTTTGTGCACATAATATATAATTAT, the “gcPBM binding intensity (ln)” value was determined as 10.6 ± 0.46. In the case of “ATATTTTTTAGTAAGACGAAATAAATAAATCTTTAT [CACACA_negctrl_site1778]” it was 9.81 ± 0.18; in that of “TATATATATATAAGCACACAAACAAAAAAAATTATA [CACACA_site3897]”, 10.3 ± 0.35. On to “ATCCAAACAAATAAAACATGCATAATATATATATAT [TGCATGCA_site766]”, for which the “gcPBM binding intensity (ln)” value is 9.83 ± 0.27. As for “GTAATATATACAAAATGTACAAAACAATAACATGAT [XGTACX_site8575]”, the “gcPBM binding intensity (ln)” value turned out to be 10.7 ± 0.39. In the case of “TTTTTTTTTAATATTTGTACACAACATGAAACATTT [XGTACX_site473]” it was 11.2 ± 0.78; in that of “CTCAAATAATTTTTTACACACATTATTTGAAATAAG [CACACA_site1290]”, 9.87 ± 0.028. Regarding “ATGCTTTTATAAATAATTAAAAAAAAAAAAAAAAAA [TGCATGCA_negctrl_site533]”, the “gcPBM binding intensity (ln)” value worked out at 9.48 ± 0.57.

Turning to “TTTTATATTCCACAAAAAATTATATAATAATAGAAC [CACACA_negctrl_site1741]”, the “gcPBM binding intensity (ln)” value was 9.955 ± 0.092. Consider “TAAAATATTACGTGTACACATAAATAAAAATAAAAA [CACACA_site5066]”, for which the “gcPBM binding intensity (ln)” value is 11.8 ± 0.92. The result for “AAGATTTGAAAAAATACACACAATAAAAAAATAAAA [CACACA_site3281]” reads 9.995 ± 0.064; that for “TATATATATATGTGTATACACACCTGATAAAGGTAT [CACACA_site2653]”, 10.1 ± 0.12. As to “AATAAATAAAAAACATGTACAAATATAATATAGCAT [XGTACX_site6429]”, the “gcPBM binding intensity (ln)” value was 10.9 ± 0.58. In the case of “ATGCACTCATTGTGCACACGCATATTACGAAAAGAA [CACACA_site2638]”, the “gcPBM binding intensity (ln)” value stood at 10.5 ± 0.4. “AAAAAAAAAAAAAACACACACACACCCATACAAAAT [CACACA_site1446]”: the “gcPBM binding intensity (ln)” value was 10.2 ± 0.31. Regarding “TAATTGTACGCCAATACACACAGAATTATAATGTAG [CACACA_site6201]”, the “gcPBM binding intensity (ln)” value is 11.5 ± 1. In the case of “TATACATATGAAAATACACACATACATACCTATATA [CACACA_site6888]” it was 9.87 ± 0.14; in that of “TATTTAACACCTTATACACACTTTCTTCCTTTTTTA [CACACA_site4590]”, 10.01 ± 0.035; in that of “AAATTTATATTCATTTGTACGTAATTTAAATTATAC [XGTACX_site5870]”, 11.6 ± 0.94. As for “TTTTATGTAATTATTTGTACATATGCCTCTTAAACT [XGTACX_site748]”, the “gcPBM binding intensity (ln)” value turned out to be 10.9 ± 0.48. The result for “ACATAAATAATAAAAACACACATATGTACATATATA [CACACA_site1913]” reads 11.3 ± 0.79.

Turning to “GATATTGAGAAAGGGTGTACAAGATATTATACTATA [XGTACX_site3598]”, the “gcPBM binding intensity (ln)” value stood at 11.3 ± 0.77. In the case of “AATAGAAAAAAATAAGTGCATTTTGGTATTCATCAT [GTGCAC_site9614]” it was 10.06 ± 0.042; in that of “TACTAGCAAATACATACACACACACCCATATACATA [CACACA_site9163]”, 10.2 ± 0.23; in that of “AAAAAAAAAAAGCACACACACATATGTGTATTTATA [CACACA_site6578]”, 10.18 ± 0.028. The result for “ACAAAATATACAAAATGTACAAAATTTACAAAATGT [XGTACX_site3544]” reads 10.5 ± 0.32; that for “TTTTTCTCTCTCTTATTATACAACAACAAAAAAAAA [GTGCAC_negctrl_site178]”, 10.2 ± 0.57; that for “AGAAATATATATATATATATATGTGACAATATTTGT [TGCATGCA_negctrl_site282]”, 10.2 ± 0.15. The result for “TTTTTTTATTTTATTTTATTATCTTATGTATCACAA [CACACA_negctrl_site1755]” reads 9.825 ± 0.064; that for “ACAAAAAGGTAATTTACACACTGCATATAGGAATAA [CACACA_site2929]”, 10.05 ± 0.021. With “TAATAAGTAAAAAAATGTACCCGTTAGGTTTAATAA [XGTACX_site638]”, the “gcPBM binding intensity (ln)” value is 11.3 ± 0.88. The result for “AAAATAATATTTAATACACACACCAGTTCTGCAAAT [CACACA_site3736]” reads 10.1; that for “ATGTATGTATATACTTGTACATATTCATATTAGTAT [XGTACX_site1118]”, 10.9 ± 0.52. Take “AATGTAGCATTTTATCGTACACTTAATACAAAAAAG [XGTACX_site6214]”: the “gcPBM binding intensity (ln)” value turned out to be 11.3 ± 0.9.

On to “TTTGTTCATATTATTGTGCACTTAAACGTAACAAAA [GTGCAC_site9505]”, for which the “gcPBM binding intensity (ln)” value was determined as 10.6 ± 0.51. In the case of “TTTATATTCTTAAGTGTGCACTATATATATATATAT [GTGCAC_site9719]” it was 10.5 ± 0.47; in that of “ACCCTATATGTAACTACACACCGCATATTGTTTACT [CACACA_site3071]”, 10.26 ± 0.028. For the sequence “TGAAATTTTTATACATGTACAAAATTAAATATAACA [XGTACX_site7324]”, the “gcPBM binding intensity (ln)” value worked out at 10.8 ± 0.49.

Turning to “CAATTACAAAAGAAATGTACTCGTAATAAATAAATA [XGTACX_site1126]”, the “gcPBM binding intensity (ln)” value was found to be 11.5 ± 0.86. In the case of “ATATTACACATATATGCACACATTGTAGTTATTTAT [CACACA_site8843]” it was 10.09 ± 0.021; in that of “TATAATAATAATAATAGTACGTATTATTAAAAAACT [XGTACX_site10]”, 11.1 ± 0.67; in that of “TTATTATGCTGAGTACGTACTTATATAAGAATAGCA [XGTACX_site2955]”, 11.8 ± 1. For “TAAGTTCACAAAAAAAAAAAAAAATAAAGAAATAAA [CACACA_negctrl_site825]”, the “gcPBM binding intensity (ln)” value was found to be 9.69 ± 0.16. In the case of “AAATTATTTCCGTGTACACATAAATATATATTTTAT [CACACA_site5121]” it was 11.8 ± 0.83.
